No constants are given. Whether binding was seen depends on the method and setting. Some binding calls cover weakened binding; strength is not graded here. Sequences can lack the tags named with a protein.
Columns and labels:
Test in all cases: ectopic mistargeting to mitochondria (Tom20-GBP); mEGFP-, GFP- or mECitrine-tagged protein 1 mistargeted to mitochondria by Tom20 tagged with GFP-binding protein (GBP) nanobody in live S. pombe cells; recruitment of tdTomato-, mCherry- or RFP-tagged protein 2 to mitochondria seen by confocal microscopy
Rng10-mEGFP (S. pombe) = target: T1, Rng10-mEGFP (S. pombe) (UniProt Q9P6L9)
T1 sequence: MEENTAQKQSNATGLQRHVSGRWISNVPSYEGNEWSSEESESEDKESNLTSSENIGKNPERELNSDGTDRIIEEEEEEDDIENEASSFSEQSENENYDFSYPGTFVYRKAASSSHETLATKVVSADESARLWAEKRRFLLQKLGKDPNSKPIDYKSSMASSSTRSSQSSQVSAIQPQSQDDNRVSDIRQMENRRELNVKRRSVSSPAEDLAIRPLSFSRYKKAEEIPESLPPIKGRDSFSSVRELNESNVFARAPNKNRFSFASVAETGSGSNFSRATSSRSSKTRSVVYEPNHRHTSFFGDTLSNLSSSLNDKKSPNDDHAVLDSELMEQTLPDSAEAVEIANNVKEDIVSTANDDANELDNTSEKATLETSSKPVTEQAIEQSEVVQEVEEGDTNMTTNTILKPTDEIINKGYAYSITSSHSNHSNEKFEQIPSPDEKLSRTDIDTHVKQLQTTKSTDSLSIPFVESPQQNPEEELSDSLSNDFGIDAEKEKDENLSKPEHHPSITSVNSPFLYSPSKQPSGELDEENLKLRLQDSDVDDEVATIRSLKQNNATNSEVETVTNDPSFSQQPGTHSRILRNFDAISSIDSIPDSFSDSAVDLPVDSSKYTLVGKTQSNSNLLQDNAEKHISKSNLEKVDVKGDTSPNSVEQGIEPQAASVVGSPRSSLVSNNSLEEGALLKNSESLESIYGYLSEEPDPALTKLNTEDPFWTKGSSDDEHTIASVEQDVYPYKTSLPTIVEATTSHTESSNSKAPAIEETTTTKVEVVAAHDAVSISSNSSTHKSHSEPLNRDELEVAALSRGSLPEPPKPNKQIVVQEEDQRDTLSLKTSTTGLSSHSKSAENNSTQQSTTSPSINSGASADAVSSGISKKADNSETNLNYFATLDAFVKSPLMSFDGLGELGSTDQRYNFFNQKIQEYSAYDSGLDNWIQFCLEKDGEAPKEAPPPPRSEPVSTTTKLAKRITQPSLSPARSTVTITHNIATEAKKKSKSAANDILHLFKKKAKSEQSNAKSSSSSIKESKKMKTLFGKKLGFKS

Rga7-mEGFP (S. pombe) = target: T2, Rga7-mEGFP (S. pombe) (UniProt O94466)
T2 sequence: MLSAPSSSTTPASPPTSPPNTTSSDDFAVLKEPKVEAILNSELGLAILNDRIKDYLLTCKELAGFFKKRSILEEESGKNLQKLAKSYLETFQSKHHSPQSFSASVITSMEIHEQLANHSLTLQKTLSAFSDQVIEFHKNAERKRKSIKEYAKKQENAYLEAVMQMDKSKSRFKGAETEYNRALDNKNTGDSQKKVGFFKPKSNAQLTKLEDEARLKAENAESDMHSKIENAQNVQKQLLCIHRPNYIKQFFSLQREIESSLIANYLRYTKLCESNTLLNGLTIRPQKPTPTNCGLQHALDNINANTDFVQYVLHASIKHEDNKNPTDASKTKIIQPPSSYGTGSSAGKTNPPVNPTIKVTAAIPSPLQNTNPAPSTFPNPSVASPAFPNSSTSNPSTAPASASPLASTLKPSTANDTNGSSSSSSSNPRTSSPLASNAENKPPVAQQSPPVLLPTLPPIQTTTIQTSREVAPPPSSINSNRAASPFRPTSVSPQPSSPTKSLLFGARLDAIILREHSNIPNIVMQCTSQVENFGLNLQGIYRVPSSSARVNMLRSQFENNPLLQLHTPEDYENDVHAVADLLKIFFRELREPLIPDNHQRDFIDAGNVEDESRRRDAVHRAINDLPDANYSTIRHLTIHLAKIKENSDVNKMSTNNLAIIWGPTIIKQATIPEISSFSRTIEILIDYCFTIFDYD

[1] = target: T3, Rng10(1–750)-mEGFP (S. pombe) (UniProt Q9P6L9)
T3 sequence: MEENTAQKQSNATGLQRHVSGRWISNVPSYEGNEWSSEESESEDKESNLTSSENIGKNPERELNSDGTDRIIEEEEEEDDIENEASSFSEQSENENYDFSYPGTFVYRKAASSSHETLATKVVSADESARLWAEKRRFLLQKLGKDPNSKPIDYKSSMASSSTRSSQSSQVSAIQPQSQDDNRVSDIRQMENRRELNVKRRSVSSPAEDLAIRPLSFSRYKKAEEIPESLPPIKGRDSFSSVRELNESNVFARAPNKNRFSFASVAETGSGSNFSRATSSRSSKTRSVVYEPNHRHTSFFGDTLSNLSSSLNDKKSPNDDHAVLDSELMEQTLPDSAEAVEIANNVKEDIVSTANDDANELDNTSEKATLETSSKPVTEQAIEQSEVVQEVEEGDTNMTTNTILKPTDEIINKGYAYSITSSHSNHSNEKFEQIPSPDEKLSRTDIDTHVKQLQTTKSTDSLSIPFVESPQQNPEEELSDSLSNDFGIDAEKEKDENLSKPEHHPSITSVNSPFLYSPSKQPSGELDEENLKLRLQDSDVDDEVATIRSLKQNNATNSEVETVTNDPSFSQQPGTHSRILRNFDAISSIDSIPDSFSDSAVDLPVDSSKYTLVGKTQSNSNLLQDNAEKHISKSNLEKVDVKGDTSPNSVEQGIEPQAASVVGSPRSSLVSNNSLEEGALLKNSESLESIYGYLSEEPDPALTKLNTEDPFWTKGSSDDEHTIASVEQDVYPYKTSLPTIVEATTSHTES

Measured: binding

B1: Ync13-tdTomato (protein, UniProt O13683 1-1237)
chain: MNCRRKPLPLHSNEVQAAESISKDELYSWTLKNVLILFLVQYRASTPSALQTSSFSTPVEKKTNGAFSGSLFSAKEKKDNPKYPKDFIKYLSLALESISMGKEPEYQDQLIRGCFAAFYNNINKSHISKQLKDSRKIEDMFLIFASSVSSELTKRLGTAYDSNLADRITASFIELCKRVTLKGQLASPSSEFVSHLDMYHSKLLNKSEILSTKRVNRGQDQFDLSSFPLLKVFSSVFKVAYSKALLDAEKLFPSIDEAAIAEDIGILIEDLESDACKFSHSVVDFSNYKSYSTWKARELQTLEQHRKIMLSLIPLSSSPNHPIQPIGFPASRKTPTYVPPIARPYFRQLLSLCLEYRLQVTDPVEVKQINTFIRECSIYWRILPSTRCALSMDFAREHLQKGLITSADVLTHFGELHKSLKEWEITYWPKIDVSIFSSALFGIRNALAQLLKKSLLDLLHEKKADFHRWLNIMSICVEDGKVINQDLSPKSEISSVALALQEHCKVIFDEEFDLSKLPSSNFLDEIILASNRISVRIKFLERNCSECIYGVLSLPQIFINIVLPNYIRAALVVAKEYLREKANADINDLTKDMLEIYSDLKQMIHVLQEYHNEEYRIGSFEGFFQPFIDSWLDNVEASAEQWFLRSLEKDNFDENSSEGQYSSSIVDLFHAFHQAFRTLEGFEWEDDLANARFFTRFFRVIYIVLSKYTQWTTQKFFEEANKQDDTSEVQNDNSSSWFSKARNILSGSNEVLPFRFSPTMCILLNNIHFAMHAYEELEQKIDLQRLIEALDVAESTKRHKISATNYLYTIKVVRGEGLHPDGAGKIRTSYIVLTDNKGRRIGKTRPIHSMNPRWDDTFEVKTKDALMITANLWSKGKFNDHEIFGRSSFTLSPKIYGDYLPREEWFDLNPHGELLLRIEMEGEREHIGFYVGRTYHDLERAQREMIKFIVNKMEPVINQNLSTATLKKLLSANTWMDLDKTMTSVTSLLNRTGFSSKSSENVKKEGELTDVQIEAAIYELLDYFDLNFSIIAKHLTKDVFVTVMSYVWDEVVCTTEELLLPPVSVKPINRKPLSPAQMAIVYRWLQFLKDYFYANGEGVKLPVLETDHYKELLRVQEYYDKPTDFLLQECDKIASQLYLSSRMVNNEPVESLPRHSRIKFANKEIYRSGTIRKVHIQTNESELERNERIILRILRMRADSKRFLSKHFQRKGRLLMADAMRNGYVMPLGHLKKLDSR
binds: all assays above

Source: paper doi:10.1101/2025.05.13.653810, “Spatial control of secretory vesicle targeting by the Ync13–Rga7–Rng10 complex during cytokinesis” (bioRxiv, 2025)
